Reference: PubChem BioAssay AID504832 (National Center for Advancing Translational Sciences (NCATS), 2011)
Among all 310,000 compounds or so, about 18,000 (5.8%) were called active. Inconclusive means that the source gave no clear call. Such entries were picked first, then a sample of the others. Calls come from the whole dose curve; as a rule, active = well fitted inhibition curve with a large enough effect; inconclusive = small, poorly fitted or top-dose-only effect, or another doubt; inactive = no such curve, though single readings can be large or run the other way. Potencies of inconclusive entries are left out as doubtful fits.

Test: Primary qHTS for delayed death inhibitors of the malarial parasite plastid, 48 hour incubation
Conditions: P. falciparum luciferase growth in erythrocytes; series mostly up to 28.7 µM; activity change, negative = inhibition: at the top concentration
Procedure, shortened: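 Luminescence readout; reporter = integrated firefly luciferase in P. falciparum. RBC culture at 2% hematocrit, 0.1% parasitemia final, 37 C/5% CO2; decreased signal taken as growth inhibition.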
% is set by controls: 0 for no effect and ±100 for the full control effect; potency is the fitted concentration of half-maximal effect; tags give direction and shape of the fitted curve.

Compound	activity change, negative = inhibition	Potency
O=C(NNC(=O)C(O)c1ccccc1)NC1CCCCC1 (configuration not stated)	inactive: 25.1%	
CC(C)c1ccc(C2C3=C(COC3=O)Nc3cc4c(cc32)OCO4)cc1 (configuration not stated)	inactive: 1.09%	
COC(=O)[C@@]1(Cc2ccc(OC)cc2)[C@H]2c3cc(C(=O)N4CCCC4)n(CCO)c3C[C@H]2CN1C(=O)c1ccccc1		inconclusive [inhibitor, full curve]
CCOc1cc(/C=N/NC(=O)CSc2cccc3cccnc23)ccc1O		inconclusive [inhibitor, single point]
Cn1c(=O)c2c(ncn2CC(=O)N/N=C/c2ccc(Br)s2)n(C)c1=O		inconclusive [inhibitor, partial curve]
O=C(CN(C(=O)CNC(=O)c1ccco1)c1ccc(Cl)c(Cl)c1)NC1CCCCC1		inconclusive [inhibitor, single point]
CC1(C)CC(NC(=S)NCc2ccc3c(c2)OCO3)CC(C)(C)N1		inconclusive [inhibitor, partial curve, poor fit]
CCCN(c1ccc(C)cc1)c1nc(=O)c2cccnc2s1		inconclusive [inhibitor, single point]
CC(C)Nc1cccnc1N1CCN(C(=O)c2cc3cc(NS(C)(=O)=O)ccc3[nH]2)CC1		inconclusive [inhibitor, single point]
O=C(O)CN1C(=O)c2ccc(Oc3ccc4c(c3)C(=O)N(CC(=O)O)C4=O)cc2C1=O		active: 2.08 µM
Cc1nc2ccccc2n1Cc1ccccc1	inactive: -0.657%	
O=C(O)c1cccc(Cn2c(Cl)c(/C=N/NC(=O)c3cc4ccccc4cc3O)sc2=O)c1		inconclusive [inhibitor, full curve, poor fit]
CCN(CC)c1ccc(NC(=O)c2ccc(=O)[nH]c2)cc1S(=O)(=O)Nc1ccccc1OC		active: 10.4 µM
CCCCN(C(=O)CCC(=O)Nc1cc(C)on1)C(C(=O)NC1CCCC1)c1ccc(OCC)cc1 (configuration not stated)		inconclusive [inhibitor, partial curve, poor fit]
CC(C)(C)NC(=O)NC(=O)CN1CCN(C(c2ccccc2)c2ccccc2)CC1		inconclusive [inhibitor, full curve, poor fit]
N#Cc1nc(COc2ccc(F)cc2)oc1NCCCn1ccnc1	inactive: -24.9%	
Cc1cccc(N2CC(C(=O)O)CC2=O)c1C (configuration not stated)		inconclusive [inhibitor, partial curve, poor fit]
COc1ccc2c(C(=O)CCl)c[nH]c2c1		active: 14.7 µM
O=C(N/N=C/c1cccnc1)/C(=C\c1cccs1)NC(=O)c1ccccc1	inactive: -6.97%	
CC1Sc2ccc(S(=O)(=O)N3CCC(C(=O)NCc4ccccc4)CC3)cc2NC1=O (configuration not stated)		inconclusive [inhibitor, single point]
COCCN1CC(C(=O)NCc2ccccc2-n2ccnc2C)CCC1=O (configuration not stated)	inactive: -2.92%	

Compound	activity change, negative = inhibition	Potency
COc1ccc(OC)c(C2NC(=O)N(C)C(C)=C2C(=O)OCc2ccccc2)c1 (configuration not stated)		inconclusive [inhibitor, single point]
CCc1cc(=O)oc2cc(C)cc(OCC(=O)NCc3ccccn3)c12	inactive: -27.8%	
O=C(CCl)N(Cc1cc(=O)[nH]c2ccccc12)c1ccccc1		active: 10.4 µM
O=C(NC(CC(=O)N1CCN(c2ccccc2)CC1)c1ccccc1)c1ccccc1Cl (configuration not stated)		inconclusive [inhibitor, partial curve, poor fit]
Cc1ccc(-c2[nH]ncc2/C=N/n2c(COc3ccccc3C)nc3ccccc3c2=O)cc1		inconclusive [inhibitor, single point]
COc1ccc(OC)c(S(=O)(=O)N2CCCC(C(=O)NCc3ccco3)C2)c1 (configuration not stated)	inactive: -2.52%	
CCOc1ccc(S(=O)(=O)N2CCC(C(=O)NC3CC3)CC2)cc1C		inconclusive [inhibitor, partial curve]
O=C(COc1ccccc1)Nc1nc(-c2ccc(S(=O)(=O)N3CCOCC3)cc2)cs1		inconclusive [inhibitor, partial curve, poor fit]
O=C(CN1C(=O)NC2(CCCCCC2)C1=O)N1CCN(c2ccccc2)CC1		inconclusive [inhibitor, single point]
CC(C)C1CC(CCN)(Cc2ccccc2)CCO1 (configuration not stated)		inconclusive [inhibitor, partial curve, poor fit]
Cc1ccc(C(=O)N/C(=C\c2ccc(-c3cccc([N+](=O)[O-])c3)o2)C(=O)NCCCN(C)C)cc1		inconclusive [inhibitor, single point]
CCN1CCN(c2cc(C)c3cc(NC(=S)N4CCC5(CC4)OCCO5)ccc3n2)CC1		inconclusive [inhibitor, single point]
COC(=O)Cc1ccc(N(Cc2ccccc2F)S(=O)(=O)c2ccc(C)cc2)cc1		inconclusive [inhibitor, partial curve]
Oc1cccc(/C=N/NC(=S)NCCN2CCOCC2)c1O		inconclusive [inhibitor, partial curve]
C=CCN1C(=O)C(CC(=O)Nc2ccccc2)N(Cc2ccccn2)C1=S (configuration not stated)		inconclusive [inhibitor, partial curve, poor fit]
CSc1cccc(CN2CCN(Cc3ccc(F)c(F)c3)C(CCO)C2)c1 (configuration not stated)		inconclusive [inhibitor, single point]
CCOCCCNC(=O)/C(C#N)=C/c1ccc(C(=O)OC)cc1		inconclusive [inhibitor, single point]
COc1ccc(N2CC(C(=O)NC3=NCCS3)CC2=O)cc1 (configuration not stated)	inactive: 21.5%	
Cn1c(=O)c2[nH]c(-c3ccccc3)nc2n(C)c1=O		inconclusive [inhibitor, partial curve, poor fit]
CCCCn1nc(NC(=O)CCC)c2cc3cc(OC)ccc3nc21		inconclusive [inhibitor, single point]
Cc1cc(F)ccc1NCc1cccnc1		inconclusive [inhibitor, partial curve, poor fit]
